Assay results: the supplement of paper PMC3334620
In all, about 33,000 sequences were measured (“E-score (-0.5 to 0.5)”: median about -0.054, highest 2% from about 0.35 on). Some of the results follow.

Biological target: T1, Stb5 (UniProt P38699)
T1 sequence: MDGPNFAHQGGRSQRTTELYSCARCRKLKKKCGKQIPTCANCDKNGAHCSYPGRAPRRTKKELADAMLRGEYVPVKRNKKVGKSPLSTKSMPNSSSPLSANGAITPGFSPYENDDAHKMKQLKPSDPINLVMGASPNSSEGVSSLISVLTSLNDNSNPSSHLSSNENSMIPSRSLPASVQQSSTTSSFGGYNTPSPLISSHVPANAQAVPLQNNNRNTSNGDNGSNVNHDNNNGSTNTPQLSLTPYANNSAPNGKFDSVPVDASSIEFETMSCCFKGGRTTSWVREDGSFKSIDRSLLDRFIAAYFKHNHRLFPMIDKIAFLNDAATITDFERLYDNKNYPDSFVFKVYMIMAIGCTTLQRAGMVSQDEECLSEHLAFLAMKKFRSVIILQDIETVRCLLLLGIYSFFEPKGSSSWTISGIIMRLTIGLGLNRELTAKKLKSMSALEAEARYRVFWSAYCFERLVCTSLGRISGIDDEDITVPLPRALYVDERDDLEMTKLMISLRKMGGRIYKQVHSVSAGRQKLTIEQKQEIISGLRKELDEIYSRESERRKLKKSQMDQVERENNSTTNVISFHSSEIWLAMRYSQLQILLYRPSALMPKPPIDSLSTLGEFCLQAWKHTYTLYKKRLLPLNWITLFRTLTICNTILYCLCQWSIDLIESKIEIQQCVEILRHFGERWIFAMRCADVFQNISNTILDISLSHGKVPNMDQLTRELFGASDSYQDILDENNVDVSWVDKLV
Test: PBM E-score (8-mer binding enrichment) (E-score (-0.5 to 0.5)); higher = stronger / more preferred TF binding; most listed sequences are background and not binding sites
Details: protein concentration: 200 nM; construct: GST-full length
How it was run: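 Detection of bound protein used fluorescent anti-GST, with scans normalised by masliner. The proteins were GST-tagged yeast transcription factors applied at about 100-200 nM to universal all-10-mer Agilent arrays made double-stranded by primer extension. Each ungapped eight-base word, pooled with its reverse complement, was scored with an E-score from the Universal PBM Analysis Suite.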

| Sequence | PBM E-score |
| --- | --- |
| ATGAGTTG | -0.0957 |
| TATGTAGA | -0.102 |
| AGATGAGC | -0.224 |
| CACGAGGA | -0.111 |
| CCGAGCTA | 0.0922 |
| CATGCAAG | -0.0987 |
| ATGGTGGC | -0.185 |
| ATATTTAC | 0.0874 |
| GAGTCATA | -0.0136 |
| GGAACGGA | 0.321 |
| AAAAGTGA | -0.0979 |
| AGTAACAA | -0.0286 |
| CGCCTACA | -0.0416 |
| CGCCTAGC | 0.107 |
| GCACGCAA | 0.0357 |
| GGAATATA | 0.129 |
| CTACAGAG | -0.114 |
| ATCGTGAG | 0.0538 |
| CGCGTCAA | -0.0197 |
| CGAATCTC | 0.0844 |
| AGCCAAAC | -0.0903 |
| ATACTAAA | -0.159 |
| CAATCGGG | 0.188 |
| CTGCGTCC | -0.185 |
| GGCTTTAA | 0.307 |

| Sequence | PBM E-score |
| --- | --- |
| GAGATCTC | -0.0498 |
| ATCCTGTA | -0.152 |
| GGCATTAC | 0.249 |
| TAGAGACA | -0.283 |
| AGCAAATG | -0.151 |
| CAGTCCGC | 0.252 |
| CACCGTGG | 0.197 |
| GGCTGCGA | -0.15 |
| AGCTAAAG | -0.106 |
| CATCAAAG | -0.153 |
| ACTACGTG | -0.0845 |
| AAACCTTA | -0.214 |
| AAACTATA | 0.0686 |
| ACGACGCC | 0.085 |
| ATGCGAGA | -0.175 |
| CCGCTGCC | 0.168 |
| CAAATACC | 0.263 |
| CGGCGGGC | 0.361 |
| GGTAGTTA | 0.118 |
| ACGCTGGG | 0.00412 |
| GTGATTCA | -0.0843 |
| CGTAATTA | 0.0333 |
| CAGATCAC | -0.136 |
| CGTACGAC | -0.107 |
| GGAGTCGA | -0.0605 |

| Sequence | PBM E-score |
| --- | --- |
| CGATGGAG | 0.287 |
| ACTGGGAT | -0.274 |
| CGGCAGGC | 0.051 |
| AGGCAAGG | -0.233 |
| ACATATAC | -0.0536 |
| ATGGACGG | 0.299 |
| AATTGGTA | -0.0105 |
| GCTGTCTA | -0.0882 |
| CGATTCAG | 0.0468 |
| CCATTAGC | -0.0464 |
| CAAGGTCG | -0.0186 |
| AAGAGTCT | -0.162 |
| CACTGAAG | 0.0242 |
| CGGGCCTC | 0.108 |
| CGAGTTAA | -0.173 |
| AAAACACC | 0.353 |
| CTTCAGCC | -0.239 |
| ACGTAGCG | 0.0411 |
| ACGACAAA | -0.176 |
| AGCAGGCA | -0.141 |
| TACCACAA | -0.186 |
| TCCTAACA | -0.218 |
| AGTCGATC | 0.0234 |
| ACGCCAGC | -0.181 |
| TAGCCTCA | -0.228 |

| Sequence | PBM E-score |
| --- | --- |
| GGCGACTA | 0.0909 |
| CTCAATCC | -0.0653 |
| CTCCCCTA | -0.0447 |
| ATTTTACA | -0.0811 |
| CGCTTGCA | 0.045 |
| CGCCGCAG | 0.299 |
| CAACGGAC | 0.342 |
| ATGGGCCC | 0.116 |
| CTTCGTGC | 0.0241 |
| AGGGCGTC | 0.118 |
| TCCCGACA | 0.291 |
| AAAGAATA | -0.0838 |
| GTCCTCTA | -0.159 |
| AGACTTCA | -0.343 |
| AATAAGAA | 0.00234 |
| GACTCCCA | -0.206 |
| GCGTTATA | 0.111 |
| GACACGAA | 0.0734 |
| GGGTCGTA | 0.00669 |
| CATGGGTC | -0.19 |
| GAATCAAC | -0.0937 |
| AGCTCTAG | -0.152 |
| TACGTGCA | -0.21 |
| CACATCAA | -0.259 |
| AGAAGGAT | -0.253 |

| Sequence | PBM E-score |
| --- | --- |
| CCTTGAAG | -0.133 |
| ACCCCATA | 0.0013 |
| TAGGGGAA | -0.275 |
| ACAGTCCC | 0.11 |
| CCGAATCA | 0.172 |
| GCATGCAC | -0.0844 |
| GCCATTAA | -0.0877 |
| AAGTGAAG | -0.22 |
| AAACGGCT | -0.0754 |
| ATGGAGTG | -0.143 |
| ACTATCAT | -0.0614 |
| AGGTTAGA | -0.0614 |
| AGTTCACA | -0.06 |
| TCAATCAA | -0.224 |
| ATCCCCCC | -0.0842 |
| CGTATATC | 0.107 |
| ACCGCAAC | 0.225 |
| CGTGCCTA | -0.109 |
| CTCAGGCC | -0.175 |
| CTTTTCCA | 0.0112 |
| ACTCCGCT | 0.392 |
| AGTACTCG | -0.186 |
| CGCCAGGC | 0.168 |
| ATCGTAGA | -0.214 |
| TTATCGAA | 0.104 |

| Sequence | PBM E-score |
| --- | --- |
| CTAACTCC | 0.288 |
| CTTACGTA | -0.101 |
| AACGAAAA | -0.0575 |
| AACGAGAA | 0.0265 |
| TAGTCGGA | 0.355 |
| ACCCGAGT | 0.136 |
| ATAAGAAA | -0.00881 |
| ACTAACCG | 0.128 |
| AACTTTCC | 0.0165 |
| TACCTACA | -0.284 |
| ACTCGGGC | 0.0283 |
| GTTGTCGA | -0.192 |
| GATGCACA | -0.223 |
| ATTTCCCC | 0.234 |
| AGCACATA | -0.00917 |
| ATGATGTA | -0.119 |
| ATGCTTTC | -0.185 |
| ACGGACCG | 0.297 |
| GAACTTGA | -0.0184 |
| AAAAGAAG | -0.0941 |
| GGTATTTA | 0.302 |
| GATGATCC | 0.0218 |
| CTATAGAA | -0.136 |
| AGGTGGTG | -0.185 |
| CTAACCGC | 0.0995 |

| Sequence | PBM E-score |
| --- | --- |
| CCGGAGAG | 0.13 |
| ACAGCCGT | 0.0168 |
| CGTAGGAA | -0.112 |
| AGTTTCGA | -0.17 |
| CCATTGGC | -0.178 |
| ATTAGCAG | 0.0454 |
| TCGCGCCA | -0.0166 |
| ATTACTAC | -0.152 |
| AGACCTGG | -0.234 |
| TCATTAGA | 0.0392 |
| CGGCTCGA | 0.113 |
| ATGGATGG | -0.171 |
| ATTACCGG | 0.371 |
| CATCCTGG | -0.214 |
| TCTAGTAA | -0.0555 |
| ACGGAGAC | 0.272 |
| GCTAGCGA | -0.256 |
| ACAAAGCG | -0.0231 |
| GATTAACA | -0.0292 |
| ACCGAACC | 0.194 |
| ATGCTAGA | -0.263 |
| GGCGTATA | 0.271 |
